This note sets out measurements from ChEMBL document CHEMBL4888484, “Replenishing the malaria drug discovery pipeline: Screening and hit evaluation of the MMV Hit Generation Library 1 (HGL1) against asexual blood stage Plasmodium falciparum ,using a nano luciferase reporter read-out” (2022).

The whole screen tested about 150,000 compounds, of which about 540 (0.36%) showed an effect of 50% or more. This is one part of the list.

This assay has as its system Plasmodium falciparum. Nature of the assay: Primary screen in NF54 nanoGlo assay, in single point, at 2uM, 72h; a lower Z score goes with more inhibition. The assay is classed as functional, Erythrocyte. Particulars: timepoint 72 hour.
One may read the % Inhibition as the relative decrease from the control value, in per cent. On to `Nc1nnc([C@@H]2Cc3ccccc3O2)o1`, for which the “% Inhibition” value was -15% and the Z score stood at 1.42.
For `C[C@@H](Cn1cnc(-c2ccccc2)c1C1CC1)Oc1cccnc1`, in that order: -8% and 1.64.
For `CCC1CC(CC(=O)NC2(C#N)CCc3ccccc3C2)CCO1` (stereo unspecified), the “% Inhibition” value is listed as 1% and the Z score is -0.27.
On to `CCC=C(C)C(=O)Nc1ccc(OC)nc1`, for which the “% Inhibition” value is given as -7% and the Z score was 1.14.
For `COc1ccc(Br)c(-c2nnn(CC3(O)CCC3)n2)c1`, in that order: -13% and 2.38.
For `CC(C)(NS(=O)(=O)C1CN(C(=O)C2CCCC2)C1)c1cccs1`, in that order: -5% and 0.52.
Take `O=C(CN1CCN(CC(=O)NC2CC2)CC1)Nc1cc(-c2ccc3c(c2)CCC3)nn1-c1ccccc1`: the “% Inhibition” value is recorded as -29% and the Z score is on record as 3.41.
For `Cc1noc(-c2csc(C(=O)NC(C)C)n2)n1`, in that order: -14% and 2.09.
On to `Cc1noc(-c2cccnc2N[C@@H](C)CN2CCOCC2)n1`, for which the “% Inhibition” value worked out at 5% and the Z score is given as -0.52.
For `O=C1CCCN1CCC1CN(C(=O)[C@@H]2CCCCN2)c2ccccc21` (stereo partly specified), in that order: -15% and 1.8.
With `Cc1nc(N[C@H]2CCN(C)C(=O)C2)c2cc(-c3ccccc3)sc2n1`, the “% Inhibition” value is on record as -12% and the Z score turned out to be 2.15.
On to `CC(=O)Nc1cc2nc3[nH]c(=O)[nH]c(=O)c3nc2cc1C`, for which the “% Inhibition” value was found to be 1% and the Z score is on record as -0.13.
On to `C=CCC(C)NC(=O)NC(C)C1CCOCC1` (stereo unspecified), for which the “% Inhibition” value is given as 1% and the Z score was -0.16.
As for `O=C(c1cccc2c1NCCC2)N1CCC2(CC1)C(=O)Nc1ccccc12`, the “% Inhibition” value came out at 11% and the Z score was -1.5.
Consider `O=C1N(C2CCCC2)CCC[C@@]12CCN(Cc1c[nH]cn1)C2`, for which the “% Inhibition” value is given as -10% and the Z score was 1.78.
For `Cc1nc(CC(=O)N2C[C@@H]3CC[C@H]2CN(C(=O)c2cccnc2)C3)cs1`, in that order: -6% and 0.79.
For `O=C(c1ncoc1-c1ccon1)N1CCc2nc[nH]c2C1`, the “% Inhibition” value came to 0% and the Z score is listed as -0.06.
For `CN(C)CCN(C(=O)c1cc2c(s1)CCCCC2)c1ccccc1`, the “% Inhibition” value amounted to 0% and the Z score worked out at 0.06.
On to `Cc1cc(O)cc(=O)n1CCC(=O)Nc1ccc2c(c1)OCCCO2`, for which the “% Inhibition” value was -7% and the Z score worked out at 0.93.
Take `Cc1ncncc1C(=O)NC[C@H](C)c1ccc(Br)cc1`: the “% Inhibition” value is -2% and the Z score came out at 0.28.
For `O=S(=O)(c1ccccc1Cl)N1CCC2(CC1)CC2(F)F`, in that order: 17% and -2.17.
As to `Cc1ccc(NC(=O)CC(C)(C)CC2=Nc3ccccc3S(=O)(=O)N2)cc1F`, the “% Inhibition” value is listed as 32% and the Z score is listed as -4.09.
On to `Cc1nc2ccccc2c(=O)n1N(c1ccccc1)c1ccccc1`, for which the “% Inhibition” value is reported as -4% and the Z score worked out at 0.56.
On to `Cc1ccc(CN2CCC(O)(C(F)(F)F)CC2)o1`, for which the “% Inhibition” value is -7% and the Z score is 0.95.
For `Cc1ccc(OC2(C(=O)O)CCN(Cc3cccnc3N)CC2)cc1`, in that order: -11% and 1.01.
As to `Cc1ncsc1C(=O)N(C)c1nc2cc(Cl)ccc2s1`, the “% Inhibition” value is 1% and the Z score is -0.13.
For `O=C(NCc1ccco1)c1cn2ccncc2n1`, in that order: -17% and 1.94.
For `O=C(CCc1nc(C2CCCC2)no1)N1CCC([C@H](O)C(F)(F)F)CC1`, in that order: -12% and 2.35.
For `CN(CCOc1ccccc1)S(=O)(=O)C1CCC(C(F)(F)F)CC1` (stereo unspecified), in that order: -3% and 0.51.
Take `O=C(Nc1nc(-c2cccc3ccccc23)cs1)c1ccc2c(c1)CCCC2`: the “% Inhibition” value was -3% and the Z score is on record as 0.47.
Consider `CCCNC(=O)c1cn2c(n1)[C@@H](c1ccccc1)N(C(=O)c1cnc[nH]1)CC2`, for which the “% Inhibition” value stood at 6% and the Z score is given as -0.9.
Consider `COc1cccc(NC(=O)Nc2ccc(-c3cn4ccc(C)nc4n3)cc2)c1`, for which the “% Inhibition” value was 8% and the Z score is on record as -0.9.
`CCN(Cc1ccccc1)C(=O)c1ccnc(N2CCC(C)CC2)n1`: the “% Inhibition” value is given as -4% and the Z score came out at 0.66.
Turning to `NC(=O)Cc1ccc(OCc2noc(C(=O)NCc3ccco3)n2)cc1`, the “% Inhibition” value was -5% and the Z score is recorded as 0.5.
For `CCn1c(=O)c(-c2noc(CCC(=O)N3CCCC3)n2)nn(-c2ccc(C)cc2)c1=O`, in that order: -6% and 1.06.
In the case of `Cc1nc(-c2cc(S(=O)(=O)Nc3ccc(Cl)cc3)c(C)s2)cs1`, the “% Inhibition” value is listed as -1% and the Z score stood at 0.09.
For `O=S(=O)(Cc1ccccc1)N1CCC[C@H]1c1n[nH]c2c1COCC2`, in that order: -6% and 1.1.
As for `Cc1cc(=O)n2nc(-c3ccccc3Cl)nc2n1CC(=O)N1CCCCC1`, the “% Inhibition” value is listed as -3% and the Z score was 0.34.
For `O=C(Nc1cc(F)cc(F)c1)OCC(F)(F)F`, in that order: 26% and -3.55.
For `CCN(CC)Cc1cnc2c(C(=O)N(C)C3CCOCC3)cnn2c1`, in that order: -14% and 2.56.
As to `CC(C)CS(=O)(=O)NC(=O)C1CC1C` (stereo unspecified), the “% Inhibition” value is listed as -2% and the Z score came to 0.27.
Take `O=C(NCCn1nc(-c2ccco2)n(C2CC2)c1=O)c1cccc(-n2cnnn2)c1`: the “% Inhibition” value is reported as -1% and the Z score worked out at 0.15.
Consider `COC1(CC(=O)N[C@@H](Cc2ccccc2)C(=O)N(C)c2ccccc2)CCC1`, for which the “% Inhibition” value was found to be 0% and the Z score is -0.02.
